Where “and” joins values, the source holds several entries; their conditions need not be identical. Equal values may be shown once. Inconclusive results, whose numbers are uncertain, are shown with a selection of clear calls. Potencies beside an inconclusive call are fits to weak or partial responses and may not hold up. Calls of active or inactive are those of the source.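 The calls were made as follows: active = dose-dependent loss of cell ATP signal giving a full or clear fitted curve, ranked by lower potency value; inconclusive = weak partial curve or response only at the top dose; inactive = no loss of viability signal.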
Assay: Cell Viability - Jurkat (AID 426);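 also: cells exposed to compound for 40 hours at 37 °C before ATP read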
Settings: qHTS
Excerpt: NIH Chemical Genomics Center [NCGC]
NIH Molecular Libraries Screening Centers Network [MLSCN]
National Institutes of Environmental Health Sciences [NIEHS]
National Toxicology Program [NTP]
We have developed a 1536-well cell-based assay for quantitative high throughput screening (qHTS) against a number of cell lines to determine in vitro cytotoxicity of small molecules. This particular assay uses the Jurkat cell line (Clone E6-1) which is derived from the human T cell leukemia.
NCGC Assay Protocol Summary:
The CellTiter-Glo luminescent cell viability assay (Promega) is a homogeneous method to measure the number of viable cells in culture. The end point readout of this assay is based on quantitation of intracellular ATP, an indicator of metabolic activity, using the luciferase reaction. Luciferase catalyzes the oxidation of beetle Luciferin to oxyluciferin and light in the presence of ATP. The luminescent signal is proportional to amount of ATP present.
Using the CellTiter-Glo luminescent cell viability assay, the amount of cellular ATP was measured in the Jurkat cell line with complete culture medium following compound treatment for 40 hours. The assay was performed in opaque white Kalypsys 1536-well plates. In the screen, tamoxifen and doxorubicin were used as positive controls. Library compounds were measured for their ability to cause acute toxicity in the cell line, as reflected by a decrease in intracellular ATP levels, in a concentration-dependent manner. […] AC50 values were determined from concentration-response data modeled with the standard Hill equation.
qHTS protocol for CellTiter Glo Jurkat cellular assay
[Step] [Parameter] [Value] [Description]
1. Reagent; 5 uL; 5000 Jurkat cells/well
3. Controls; 23 nL; Tamoxifen 0.34 uM to 100 uM & Doxorubicin 0.02 nM to 100 uM
4. Time; 40 hr; 37 °C incubation
5. Reagent; 5 uL; CellTiter Glo reagent
6. Time; 20 min; Room Temperature
7. Detection; Luminescence; Viewlux plate reader
Keywords: cell viability, cytotoxicity, Jurkat cell line, luminescence, NTPHTS, NTPHTS_NCGC, NIEHS, EPA, DSSTox, MLSMR, MLSCN, NIH Roadmap, qHTS, NCGC
For `C(CCOCC1CO1)COCC1CO1` (stereo not given), the Potency was inconclusive: 141 µM [partial curve]. In the case of `O=C(O)C(Cl)Br` (stereo not given), the Potency is reported as inactive: > 92 µM. With `ClC1=C(Cl)C2(Cl)C3C(Cl)C=CC3C1(Cl)C2(Cl)Cl` (stereo not given) the Potency was inconclusive: 81.6 µM [partial curve]. For `O=C(O)C(Br)CBr` (stereo not given), the Potency was inconclusive: 254 µM [partial curve]. With `C[C@H]1CCCC(=O)CCC/C=C/c2cc(O)cc(O)c2C(=O)O1` the Potency was inconclusive: 121 µM [partial curve] and inconclusive: 105 µM [partial curve]. With `Nc1cccc(Cl)c1` the Potency was inactive: > 92 µM. For `CC(C)(C)c1cc(O)ccc1O`, the Potency was inconclusive: 79.1 µM [partial curve]. With `OCCOc1ccccc1` the Potency was inactive: > 92 µM. In the case of `Cc1cc(N=Nc2ccccc2C)ccc1N`, the Potency is reported as inconclusive: 56.1 µM [partial curve]. In the case of `Brc1ccccc1`, the Potency is reported as inactive: > 92 µM. In the case of `Nc1ccc([N+](=O)[O-])cc1N`, the Potency is reported as inconclusive: 87.6 µM [partial curve]. In the case of `Oc1c(Cl)cc(Cl)cc1Cl`, the Potency is reported as inconclusive: 89.5 µM [single point]. For `CCCC[N+](=O)[O-]`, the Potency was inconclusive: 73.3 µM [partial curve]. With `O=[N+]([O-])c1cc(Cl)c(Cl)c(Cl)c1` the Potency was inconclusive: 95.7 µM [single point]. For `O=Cc1ccc(Cl)cc1Cl`, the Potency was inactive: > 92 µM. With `COC1=CC(=O)OC(CCc2ccc3c(c2)OCO3)C1` (stereo not given) the Potency was inconclusive: 37.9 µM [single point]. With `c1ccc(Nc2ccc(Nc3ccccc3)cc2)cc1` the Potency was inactive: > 92 µM. In the case of `CCN(CC)CCO`, the Potency is reported as inactive: > 92 µM. With `Oc1ccccc1-c1ccccc1` the Potency was inconclusive: 89.9 µM [single point]. In the case of `C(=NC1CCCCC1)=NC1CCCCC1`, the Potency is reported as inconclusive: 52 µM [partial curve]. For `Brc1ccc(Oc2ccc(Br)cc2Br)c(Br)c1`, the Potency was inconclusive: 135 µM [single point]. For `O=[N+]([O-])c1ccccc1CCl`, the Potency was inconclusive: 120 µM [single point]. In the case of `N#CC(Br)Br`, the Potency is reported as inconclusive: 92.6 µM [partial curve]. With `Brc1ccc(Oc2cc(Br)c(Br)cc2Br)c(Br)c1` the Potency was inconclusive: 94 µM [partial curve] and inconclusive: 105 µM [partial curve]. In the case of `COP(=S)(OC)Oc1ccc([N+](=O)[O-])cc1`, the Potency is reported as inactive: > 92 µM. For `CC(=O)[O-].CC(=O)[O-].O.O.[Cd+2]`, the Potency was inconclusive: 85.5 µM [single point]. With `CC(C)[N+](=O)[O-]` the Potency was inconclusive: 112 µM [single point]. For `CCCCCCCC(=O)Cl`, the Potency was inactive: > 92 µM. With `ClC1=C(Cl)C2(Cl)C3C4C=CC(C4)C3C1(Cl)C2(Cl)Cl` (stereo not given) the Potency was inconclusive: 119 µM [single point]. In the case of `CN(C)c1ccc(N(C)C)cc1`, the Potency is reported as inconclusive: 67.5 µM [partial curve]. In the case of `COc1ccc2c(c1OC)C(=O)OC2C1c2cc3c(cc2CCN1C)OCO3` (stereo not given), the Potency is reported as inactive: > 92 µM. In the case of `CN(C)C(=O)Nc1cccc(C(F)(F)F)c1`, the Potency is reported as inactive: > 92 µM. For `O=S(=O)(Cl)c1ccccc1`, the Potency was inactive: > 92 µM. For `O=C/C=C/c1ccccc1`, the Potency was inconclusive: 162 µM [partial curve]. With `C=CC(=O)OCCN(C)C` the Potency was inactive: > 92 µM. In the case of `O=S1OCC2C(CO1)C1(Cl)C(Cl)=C(Cl)C2(Cl)C1(Cl)Cl` (stereo not given), the Potency is reported as inconclusive: 112 µM [partial curve]. In the case of `ClC1=C(Cl)C2(Cl)C3C4CC(C5OC45)C3C1(Cl)C2(Cl)Cl` (stereo not given), the Potency is reported as inconclusive: 99.8 µM [single point]. With `O=[N+]([O-])c1cccc(CCl)c1` the Potency was inconclusive: 87.7 µM [partial curve]. With `Oc1cc(Cl)c(Cl)c(Cl)c1` the Potency was inconclusive: 96.7 µM [single point]. For `S=C=Nc1cccc2ccccc12`, the Potency was inactive: > 92 µM.

— PubChem BioAssay (NCATS)
Potency is read from the fitted curve at half-maximal effect; tags tell the direction and shape of the fitted curve.
